Experimental data: PubChem BioAssay AID2675 (National Center for Advancing Translational Sciences (NCATS), 2010)
Where “and” joins values, the source holds several entries; their conditions need not be identical. Identical values can stand only once. The campaign covered roughly 280,000 compounds. About 100 (0.036%) were called active. The shares of active, inactive and inconclusive entries below differ from those in the screen. The call rests on the fitted dose curve; in most records, active means well fitted inhibition curve with a large enough effect in the signal ratio, with a control signal flat (not every such curve was filed as active); inconclusive means small, poorly fitted or top-dose-only effect, or effect the other way, or a change in a side signal; inactive means no such curve, though single readings can be large or run the other way; the % refers to the signal ratio. Potencies beside an inconclusive call are fits to weak or partial responses and may not hold up. “Side channel” marks fits to a control or component signal instead of the main read-out.

Target: Muscleblind-like protein 1 (Homo sapiens) (UniProt Q9NR56)
UniProt Q9NR56, sequence (Q9NR56 whole entry, looked up): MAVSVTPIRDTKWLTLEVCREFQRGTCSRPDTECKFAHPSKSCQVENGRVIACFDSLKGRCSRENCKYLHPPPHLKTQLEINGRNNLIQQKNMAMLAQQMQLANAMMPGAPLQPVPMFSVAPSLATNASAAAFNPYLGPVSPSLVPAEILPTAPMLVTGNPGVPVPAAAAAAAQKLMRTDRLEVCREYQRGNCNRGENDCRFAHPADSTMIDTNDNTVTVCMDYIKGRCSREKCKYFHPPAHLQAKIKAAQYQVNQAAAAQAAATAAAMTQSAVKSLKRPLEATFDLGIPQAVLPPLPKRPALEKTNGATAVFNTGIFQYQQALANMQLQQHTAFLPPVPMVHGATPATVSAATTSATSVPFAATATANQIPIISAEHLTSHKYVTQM
Experiment: qHTS Assay for Inhibitors of MBNL1-poly(CUG) RNA binding
Settings: TR-FRET MBNL1-His/biotin-(CUG)12 binding, 665/545 ratio; series mostly up to 57.5 µM
How it was run: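 MBNL1-His + Biotin-(CUG)12, cpd titration 92 nM–58 uM; Tb anti-His Ab 0.055 ng/ul, SA-XL665 5 nM (final); 60 min RT; ratiometric 665/545 nm, Ex 340 nm; normalized to buffer and full-complex controls.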
Potency means the concentration at half of the fitted maximal effect; tags describe the fitted curve by direction and shape or compound fluorescence and quenching.

SMILES	Potency
C[n+]1cccc(C(=O)N/N=C/c2ccc3c(c2)OCO3)c1	inconclusive: 28.2 µM [quencher, side channel, partial curve]
O=C(c1ccc(N2CCCCC2)c([N+](=O)[O-])c1)N1CCC2(CC1)OCCO2	inconclusive: 28.2 µM [quencher, side channel, partial curve]
CC(=O)Nc1cc([As](=O)(O)O)ccc1O	inconclusive: 126 µM [inhibitor, partial curve, poor fit]
Cc1cc2c(C(C)C)c(O)c(O)c(C=O)c2c(O)c1-c1c(C)cc2c(C(C)C)c(O)c(O)c(C=O)c2c1O	inconclusive: 100 µM [inhibitor, partial curve, poor fit] and inconclusive: 79.4 µM [inhibitor, partial curve]
CCC(C)N1C(=O)/C(=C\c2cc3c4c(c2)CCCN4CCC3)C(=O)NC1=S (stereo not given)	inconclusive: 3.16 µM [quencher, side channel, full curve]
Cc1cc(/C=C2\C(=O)NC(=O)N(c3ccccc3F)C2=O)c(C)n1-c1cc(C(=O)O)cc(C(=O)O)c1	inactive
COc1ccccc1NC(=O)c1cc[n+](C)cc1	inconclusive: 17.8 µM [quencher, side channel, single point]
O=C(N/N=C/c1c(O)n(-c2cccc3ccccc23)c(=O)[nH]c1=O)c1ccncc1	inconclusive: 39.8 µM [quencher, side channel, single point]
CC(C)C[C@H]1C(=O)N2CCC[C@H]2[C@]2(O)O[C@](NC(=O)[C@@H]3C=C4c5cccc6[nH]c(Br)c(c56)CC4N(C)C3)(C(C)C)C(=O)N12 (stereo not given in full)	inconclusive: 1.78 µM [quencher, side channel, full curve, poor fit]
CCOc1ccc(-c2c(C)n(-c3ccc(OCC)cc3)c3[n+]2CCCCC3)cc1	inactive
N#CC(C#N)=NNc1ccc([N+](=O)[O-])cc1	inconclusive: 10 µM [quencher, partial curve]
O=C(c1cccc([N+](=O)[O-])c1)C12CN3CN(CN(C3)C1)C2	inconclusive: 22.4 µM [quencher, side channel, single point]
CCCCn1c(O)c(/C=C/C=Nc2ccccc2)c(=O)[nH]c1=O	inconclusive: 31.6 µM [activator, single point]
CCCCCn1cc(C(=O)C(=O)N2CCOCC2)c2ccccc21	inactive
N#CC(C#N)=Cc1ccc(N2CCOCC2)cc1	inconclusive: 17.8 µM [quencher, side channel, single point]
